Experimental data as given in publication PMC7504102.
Substitutions are numbered along the chain they refer to. Results are given in words; binding and its absence hold for the method and conditions named. For part of these data: In cells and extracts the contact can be indirect. Some results given as binding are weak or reduced against the parent protein; the word gives no strength. For part of these data: Tags and fused reporters may be left off the sequences shown.

The chains behind the UniProt entries cited, without tags or fusion partners. Where a name states a change or a piece, a line headed by the entry shows the natural chain unless it says otherwise. A line that says so, or that is headed by a name, gives the form on record, which may keep a tag or linker.
UniProt O75340: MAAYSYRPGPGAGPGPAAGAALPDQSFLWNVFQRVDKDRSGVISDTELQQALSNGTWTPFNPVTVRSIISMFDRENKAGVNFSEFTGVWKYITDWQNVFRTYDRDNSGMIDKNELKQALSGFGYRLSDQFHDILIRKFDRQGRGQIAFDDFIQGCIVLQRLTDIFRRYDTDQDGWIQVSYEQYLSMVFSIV
FLAG-ALG-2 E47/114A (O75340, form named): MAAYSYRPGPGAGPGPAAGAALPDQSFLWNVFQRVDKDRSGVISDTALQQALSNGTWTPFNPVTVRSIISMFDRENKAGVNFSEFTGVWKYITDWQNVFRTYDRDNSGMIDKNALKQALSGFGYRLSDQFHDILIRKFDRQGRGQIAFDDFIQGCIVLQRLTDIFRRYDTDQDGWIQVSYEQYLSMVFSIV

Key:
[1] = molecular target: T1, StrepHA-SARAF_CytD-SGFP2 (WT) (human) (UniProt Q96BY9); experiment: pull-down; Strep-pulldown: StrepHA-SARAF_CytD-SGFP2 (WT or mutants) held on Strep-Tactin XT magnetic beads from cleared lysates of HEK293 (endogenous ALG-2) or HEK293 ALG-2KO cells co-expressing FLAG-ALG-2; HKM, 0.2% Nonidet P-40, 10 μM CaCl2, overnight 4 °C; WB with anti-ALG-2 or anti-FLAG
T1 sequence: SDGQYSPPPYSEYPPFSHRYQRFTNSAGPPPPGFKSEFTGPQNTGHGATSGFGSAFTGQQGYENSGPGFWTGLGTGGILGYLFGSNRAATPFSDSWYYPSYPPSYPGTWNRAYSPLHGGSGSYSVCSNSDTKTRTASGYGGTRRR

[2] = molecular target: T2, StrepHA-SARAF_CytD-SGFP2 F228S (human) (UniProt Q96BY9); experiment: as above
T2 sequence: T1 sequence with F34S

[3] = molecular target: T3, untagged wild type (WT) SARAF (human) (UniProt Q96BY9); experiment: co-IP; IP with anti-SARAF pAb from cleared HEK293 lysates; HKM, 1% CHAPS, 5 mM EGTA, overnight 4 °C; WB with anti-ALG-2 pAb
T3 sequence: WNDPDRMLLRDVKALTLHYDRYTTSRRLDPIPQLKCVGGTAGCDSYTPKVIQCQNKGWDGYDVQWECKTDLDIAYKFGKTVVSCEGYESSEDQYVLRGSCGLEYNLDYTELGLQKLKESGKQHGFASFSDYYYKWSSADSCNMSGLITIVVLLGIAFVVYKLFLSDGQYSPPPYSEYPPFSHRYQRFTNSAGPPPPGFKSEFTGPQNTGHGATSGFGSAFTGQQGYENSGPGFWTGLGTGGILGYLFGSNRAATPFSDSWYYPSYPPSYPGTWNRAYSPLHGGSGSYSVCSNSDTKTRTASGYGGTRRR

[4] = molecular target: T4, endogenous SARAF (human (endogenous in HEK293, HeLa, MCF7)) (UniProt Q96BY9); experiment: as above
T4 sequence: T3 sequence

[5] = molecular target: T3, untagged wild type (WT) SARAF (human); experiment: co-IP; IP with anti-SARAF pAb from cleared lysates (HEK293 transfected or vector, HeLa, MCF7); HKM, 1% CHAPS, 100 μM CaCl2, overnight 4 °C; WB with anti-ALG-2 pAb
[6] = molecular target: T4, endogenous SARAF (human (endogenous in HEK293, HeLa, MCF7)); experiment: as above
[7] = molecular target: T1, StrepHA-SARAF_CytD-SGFP2 (WT) (human); experiment: pull-down; Strep-pulldown of StrepHA-SARAF_CytD-SGFP2 from mixed HEK293 lysates (HKM, 0.2% Nonidet P-40) with 5 mM EGTA or 5 mM EDTA; WB with anti-ALG-2
[8] = molecular target: T5, StrepHA-SARAF_CytD-SGFP2 Δ2 (human) (UniProt Q96BY9); experiment: pull-down; Strep-pulldown: StrepHA-SARAF_CytD-SGFP2 (WT or mutants) held on Strep-Tactin XT magnetic beads from cleared lysates of HEK293 (endogenous ALG-2) or HEK293 ALG-2KO cells co-expressing FLAG-ALG-2; HKM, 0.2% Nonidet P-40, 10 μM CaCl2, overnight 4 °C; WB with anti-ALG-2 or anti-FLAG
T5 sequence: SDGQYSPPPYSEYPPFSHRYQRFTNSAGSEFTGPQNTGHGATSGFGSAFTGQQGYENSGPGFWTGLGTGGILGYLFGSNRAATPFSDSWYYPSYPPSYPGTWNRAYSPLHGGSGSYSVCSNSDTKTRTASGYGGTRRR

[9] = molecular target: T6, SGFP2-fused FNDC3A (human) (UniProt Q9Y2H6); experiment: far-Western, overlay or dot blot; SGFP2-fused proteins immunoprecipitated with anti-GFP pAb from HEK293 ALG-2KD lysates, resolved and blotted; membrane probed with Nluc-ALG-2; luminescence read in TBS containing 100 μM CaCl2; only the binder purified
T6 sequence: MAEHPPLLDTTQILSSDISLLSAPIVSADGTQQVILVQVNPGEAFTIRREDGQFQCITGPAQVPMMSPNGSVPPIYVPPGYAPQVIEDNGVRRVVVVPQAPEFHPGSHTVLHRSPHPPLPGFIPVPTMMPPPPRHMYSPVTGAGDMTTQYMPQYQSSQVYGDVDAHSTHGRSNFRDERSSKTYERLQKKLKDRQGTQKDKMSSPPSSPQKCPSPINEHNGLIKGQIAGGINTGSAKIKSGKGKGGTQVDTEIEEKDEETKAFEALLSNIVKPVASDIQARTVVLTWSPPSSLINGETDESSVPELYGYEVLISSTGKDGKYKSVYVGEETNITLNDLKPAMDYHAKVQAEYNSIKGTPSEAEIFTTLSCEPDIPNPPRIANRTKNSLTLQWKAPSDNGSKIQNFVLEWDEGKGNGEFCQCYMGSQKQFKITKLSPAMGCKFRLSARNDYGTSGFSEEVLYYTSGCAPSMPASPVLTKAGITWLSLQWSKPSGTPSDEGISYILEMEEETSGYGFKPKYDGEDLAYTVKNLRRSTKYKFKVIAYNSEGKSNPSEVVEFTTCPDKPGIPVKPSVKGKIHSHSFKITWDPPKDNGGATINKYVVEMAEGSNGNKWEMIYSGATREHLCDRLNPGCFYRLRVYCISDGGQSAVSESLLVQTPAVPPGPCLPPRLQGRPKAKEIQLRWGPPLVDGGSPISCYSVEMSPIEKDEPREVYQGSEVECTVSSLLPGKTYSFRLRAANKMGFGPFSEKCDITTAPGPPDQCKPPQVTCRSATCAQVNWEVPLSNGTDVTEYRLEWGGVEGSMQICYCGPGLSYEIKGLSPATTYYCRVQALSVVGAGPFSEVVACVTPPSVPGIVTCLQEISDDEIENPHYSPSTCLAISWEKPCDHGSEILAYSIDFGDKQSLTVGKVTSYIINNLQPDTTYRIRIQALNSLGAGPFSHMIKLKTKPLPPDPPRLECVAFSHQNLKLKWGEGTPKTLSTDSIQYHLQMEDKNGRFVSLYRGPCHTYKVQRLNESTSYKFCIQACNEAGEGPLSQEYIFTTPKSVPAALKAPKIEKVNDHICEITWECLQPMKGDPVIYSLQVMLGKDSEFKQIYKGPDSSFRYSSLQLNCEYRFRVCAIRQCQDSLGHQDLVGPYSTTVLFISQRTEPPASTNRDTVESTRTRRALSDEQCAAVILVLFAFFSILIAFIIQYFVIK

[10] = molecular target: T7, SGFP2-fused SHISA4 (human) (UniProt Q96DD7); experiment: as above
T7 sequence: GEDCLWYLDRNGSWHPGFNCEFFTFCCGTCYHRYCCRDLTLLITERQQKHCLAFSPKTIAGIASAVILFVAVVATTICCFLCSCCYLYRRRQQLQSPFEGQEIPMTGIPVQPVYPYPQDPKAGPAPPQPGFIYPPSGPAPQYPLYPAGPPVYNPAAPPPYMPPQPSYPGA

[11] = molecular target: T7, SGFP2-fused SHISA4 (human); experiment: pull-down; SGFP2-fused proteins held on protein G magnetic beads via anti-GFP pAb; incubated with Nluc-ALG-2 (300 ng/mL) in buffer HKM, 0.2% Nonidet P-40, 0.1% gelatin, 100 μM CaCl2, 2 h, 4 °C; bound luciferase activity relative to Sec31A-p (100%); only the binder purified

## FLAG-ALG-2 E47/114A (from UniProt O75340 1-191)
[1]
  binding: no binding

## FLAG-ALG-2 F85A (from UniProt O75340 1-191)
[1]
  binding: no binding

## FLAG-ALG-2 Y180A (from UniProt O75340 1-191)
[1]
  binding: binds

## FLAG-tagged ALG-2 (WT) (from UniProt O75340 1-191)
[1]
  binding: binds
[2]
  binding: no binding

## endogenous ALG-2 (from UniProt O75340 1-191)
[3]
  binding: no binding (condition: with 5 mM EGTA)
[4]
  binding: no binding (condition: with 5 mM EGTA)
[5]
  binding: binds
[6]
  binding: binds
[7]
  binding: no binding (condition: with 5 mM EGTA or 5 mM EDTA)
[1]
  binding: binds
[8]
  binding: no binding

## nanoluciferase (NanoLuc, Nluc)-fused ALG-2 (from UniProt O75340 1-191)
[9]
  binding: binds
[10]
  binding: binds
[11]
  binding: binds
